# Reference: the supplement of paper PMC3334620
# The full ranking holds about 33,000 sequences; the median of “E-score (-0.5 to 0.5)” is about -0.056, and the highest 2% start at about 0.38. The list shows a part of the results.
# Target: Stb4 (UniProt P50104)
# Test: PBM E-score (8-mer binding enrichment) (E-score (-0.5 to 0.5)); higher = stronger / more preferred TF binding; most listed sequences are background and not binding sites
# Conditions: protein concentration: 200 nM; construct: GST-DNA-binding domain
# Outline: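 Universal all-10-mer Agilent arrays, double-stranded by primer extension on fresh or once-stripped slides, were probed with about 100-200 nM GST-tagged yeast transcription factors made by PURExpress. Fluorescent anti-GST detected bound protein, and masliner normalised the scans. E-scores from the Universal PBM Analysis Suite were given to each ungapped eight-base word pooled with its reverse complement.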
row,Sequence,PBM E-score
1,AACACCCT,-0.129
2,ACAGATGA,-0.0559
3,AAACCAGA,-0.134
4,ACGGGGAA,0.172
5,AGCGATGC,-0.183
6,ATTGGTAA,-0.137
7,GCGTGGCC,-0.0801
8,AAGTTGAC,-0.121
9,GGAGCAAC,0.0986
10,ACAGCGCT,0.00967
11,CATCACCC,0.123
12,GTGAAAAC,0.0408
13,AGCGAAGC,-0.147
14,CAAAAGCA,-0.108
15,AAATCCGG,0.332
16,GGGAAACC,0.207
17,GAACCGAA,0.397
18,TTAATCAA,-0.128
19,GTACTATA,-0.0645
20,CCGAGACC,0.431
21,CAGGAAAC,-0.167
22,AACTTACG,-0.0101
23,GCTATTAC,-0.173
24,GGTCAGTA,-0.018
25,GGATGCCA,-0.0267

row,Sequence,PBM E-score
1,GGGAATAC,0.148
2,CCACTTGA,-0.0304
3,ACAGTCTA,-0.211
4,TAGCACTA,-0.203
5,CGGGGCTC,0.0801
6,AGGTAAAT,-6e-05
7,GGTGATAA,-0.00017
8,CGAGGGGA,0.193
9,CGTTAATC,0.0955
10,ATCCCCCG,0.239
11,CTAAACAA,-0.144
12,ACCAACCT,-0.017
13,ACGTTACT,-0.00929
14,TCAAAGCA,-0.0262
15,AACACAAA,-0.079
16,CATTGTCG,-0.0389
17,ACAGTCAA,-0.196
18,GCGAGCTA,-0.0842
19,AGAGTAAA,-0.14
20,GGACGCAA,0.0215
21,ATAGTAAC,-0.0231
22,ATGCGTCC,-0.0349
23,CACAGGAG,-0.128
24,CTCGAACC,-0.123
25,CTGTGTGC,-0.158

row,Sequence,PBM E-score
1,CGCTACGA,0.0233
2,CGTGCCCC,-0.111
3,TAACAGTA,-0.317
4,ATATACAT,-0.0461
5,CCTCCAGC,-0.218
6,GAAACTAC,0.0124
7,CTTGTTCC,0.181
8,CATTGTAG,-0.187
9,ACGACCTC,0.0549
10,AGGTATTG,-0.221
11,GAACACTA,-0.0188
12,ATTGTTTA,-0.117
13,CAGGCTAG,-0.357
14,ACGCACGA,-0.196
15,ATAGTTCG,0.0551
16,CTGTGAAA,-0.0816
17,AAATTCCT,-0.0146
18,CGTGTCAG,0.0424
19,ATCGTCTG,-0.192
20,CCCGCGGG,0.301
21,GGACCGTA,0.0674
22,ACGTGCCA,-0.225
23,GCACAGAA,-0.107
24,CCGGAGTA,0.362
25,CATACCAA,-0.135

row,Sequence,PBM E-score
1,CTGCGTTC,-0.129
2,AGACGATC,-0.339
3,ACTGGGAC,-0.191
4,AACAACGT,-0.113
5,GCACAGCA,-0.0896
6,ACCGAGTC,0.244
7,ACCGACAG,0.218
8,ACTATATA,-0.0478
9,CCCGACCC,0.353
10,CTGATAAA,-0.0917
11,GATAGCCA,-0.119
12,AGGCCCAG,-0.228
13,CATGCTAC,-0.211
14,GGCGGCCA,-0.146
15,TATACTAA,-0.149
16,ATTTACGC,-0.0126
17,ATATTCGG,0.399
18,AGTTGAGA,-0.116
19,GCTTGCTA,-0.0867
20,AAGTTTCA,-0.0705
21,CGCACACA,-0.163
22,GGCGCCAA,-0.16
23,CGTCAGTC,0.0557
24,ATAATCAC,-0.0304
25,TTACAAAA,-0.0358

row,Sequence,PBM E-score
1,GGCCCAGA,-0.129
2,AAGCCGAT,0.299
3,CCGTGCTC,0.248
4,CCTCGTCC,-0.106
5,ATATGTTC,0.138
6,GGTATGAC,0.0721
7,CCTCTGAA,-0.00793
8,AGGTCATA,-0.21
9,ACATAAAT,-0.06
10,CAGTCGAG,-0.215
11,GGACTAAC,-0.0138
12,AAAGAATG,-0.0925
13,AACCTCCT,-0.187
14,GACCTGGA,-0.196
15,AGCCTAAC,-0.122
16,AGTGGCCC,-0.0336
17,CAATCCGA,0.403
18,GCCCCACC,0.13
19,CCCCGGGA,0.307
20,AGAAGATC,0.119
21,AAACCACC,0.0162
22,CCTGCGGC,-0.0384
23,ACTACCCA,-0.261
24,AGCAACAT,-0.132
25,CCGAGCTC,0.435

row,Sequence,PBM E-score
1,CCAGTGCA,-0.303
2,CCTTCTTA,-0.143
3,GGCAGCCA,-0.125
4,ATAAGATC,-0.141
5,CACAACCG,0.203
6,CAGATCCC,0.00572
7,CTACTTGA,-0.164
8,ATGTGGAC,-0.164
9,ATGGACGA,-0.00649
10,GCTCTAGA,-0.123
11,ACCAAAAC,-0.146
12,TAACACTA,-0.149
13,ACCGGGAG,0.251
14,ATGTCTCC,0.133
15,AGGACCGG,0.138
16,GGACCGGA,0.346
17,CGTGAAGA,-0.0749
18,CTGGACGC,-0.278
19,GAATATCA,0.102
20,CGCCAAAA,0.0493
21,ACTTCGAC,-0.0532
22,CATGCTGG,-0.347
23,ATCCAAGA,0.00699
24,CTCTGATC,-0.162
25,GTGGAATA,0.0247

row,Sequence,PBM E-score
1,ACTCCGCG,0.214
2,GACGAGCA,-0.146
3,ACGACAGA,-0.291
4,TGAGATAA,0.0542
5,TCGACCAA,-0.31
6,GTGGCGTA,-0.0497
7,TATTCCAA,-0.113
8,CTGTTACC,-0.0187
9,GCGTAGAC,-0.209
10,ATGTTGTG,-0.143
11,ACCGGCGC,0.11
12,ACCGCCAA,-0.106
13,AGGAACTG,-0.148
14,CATTCTTA,-0.0548
15,ACATTCCG,0.365
16,GACGGCGA,-0.0984
17,AACGAAGT,-0.352
18,AAGCGAAA,-0.0461
19,ACCGTGGC,-0.171
20,ATGATGAC,-0.113
21,AATCAAAG,-0.147
22,CAGGGCTA,-0.198
23,AACACATG,-0.303
24,CTCAGCAA,-0.138
25,AATTAAAG,0.00931

row,Sequence,PBM E-score
1,AGTCTATA,-0.333
2,CCACTGTC,-0.147
3,AGTTAAAG,-0.175
4,TGCTAGCA,0.0512
5,GCACACTA,-0.0748
6,CGCTTCTA,-0.253
7,CCCGAAGG,0.394
8,GCGTTTAA,-0.0915
9,CCGCCTTC,0.0653
10,AAGTGCGA,-0.0645
11,CCAGGAAA,-0.0736
12,AGAACGCG,0.0553
13,CGCGCGAA,0.0365
14,ACCATCTG,-0.188
15,CCTTCCTA,-0.354
16,ACGCACCT,-0.166
17,AATATGGA,-0.314
18,CACCCCGC,0.167
19,ATACAGCC,0.00135
20,ATTGAGGC,0.0815
21,CATGGTTC,0.0335
22,CTTGTGAC,-0.0244
23,CCATACCA,-0.062
24,ATGGACCG,0.0897
25,CAGGTTCC,0.0543

row,Sequence,PBM E-score
1,AGCTCAGA,-0.103
2,ACTTGGCC,-0.114
3,GGTCTTAC,-0.136
4,AACTGGAA,-0.0984
5,CGCCTTCA,-0.177
6,CCGCTTGC,0.11
7,CATCAATC,-0.0724
8,AGTGTGTG,-0.228
9,GAGGAACC,-0.0303
10,CGGGCAGA,0.244
11,CACTCAAA,-0.164
12,GAACAACA,0.0207
13,AGAAGACG,0.00073
14,CTTTCTAC,-0.106
15,CAGTGCGG,0.0813
16,CTAAACTC,-0.0373
17,TCATTACA,-0.165
18,ATTACATA,-0.276
19,AGATTACT,-0.167
